Cytotoxicity call data for 40 molecules are collected here from the antibiotic and cytotoxicity screens of Wong et al. (2023).

The list shows a part of the results.

In the first assay the test system is HSkMC (human skeletal muscle cells). As to the kind of experiment: cytotoxicity call (relative viability < 0.9). The settings on record: 10 µM.
Regarding `C/C=C1\NC(=O)[C@H]2CSSCC/C=C/[C@H](CC(=O)N[C@H](C(C)C)C(=O)N2)OC(=O)[C@H](C(C)C)NC1=O`, the cytotoxicity call is “active”.

For `COc1ccc(S(=O)(=O)N(C)C[C@@H]2Oc3c(NS(=O)(=O)c4c(C)noc4C)cccc3C(=O)N([C@@H](C)CO)C[C@@H]2C)cc1`, the cytotoxicity call was “inactive”.

On to `C[C@@H]1CCCCO[C@H](CN(C)CC2CC2)[C@H](C)CN([C@@H](C)CO)C(=O)c2cc(NC(=O)C3CCCCC3)ccc2O1`, for which the cytotoxicity call was “inactive”.

With `c1ccc(Oc2cccc(Oc3ccccc3)c2)cc1`, the cytotoxicity call is “inactive”.

`Cc1noc(C)c1NC(=O)N(C)C[C@@H]1Oc2ccc(NC(=O)NC(C)C)cc2CC(=O)N([C@@H](C)CO)C[C@@H]1C`: the cytotoxicity call is “inactive”.

Regarding `C[C@@H]1CN([C@H](C)CO)C(=O)Cc2cc(NC(=O)CCCCCC(=O)Nc3ccccc3N)ccc2O[C@@H]1CN(C)CC1CCCCC1`, the cytotoxicity call is “active”.

Turning to `CC[C@H]1OC(=O)C[C@@H](O)[C@H](C)[C@@H](O[C@@H]2O[C@H](C)[C@@H](O)[C@H](N(C)C)[C@H]2O)[C@@H](CCN2C[C@H](C)C[C@H](C)C2)C[C@@H](C)C(=O)/C=C/C(C)=C/[C@@H]1CO[C@@H]1O[C@H](C)[C@@H](O)[C@@H](OC)[C@H]1OC`, the cytotoxicity call was “inactive”.

Regarding `C[C@@H]1CN([C@@H](C)CO)C(=O)c2cccc(NC(=O)C3CCOCC3)c2O[C@@H]1CN(C)S(=O)(=O)c1cccs1`, the cytotoxicity call was “inactive”.

Take `CC(=O)N1CCO[C@H]2CN(S(=O)(=O)c3cccnc3)C[C@@H]2C1`: the cytotoxicity call is “inactive”.

With `CO[C@@H]1CN(C)C(=O)c2ccc(NC(C)=O)cc2OC[C@@H](C)N(S(=O)(=O)c2cn(C)cn2)C[C@H]1C`, the cytotoxicity call was “inactive”.

Regarding `COc1ccc(NC(=O)Nc2cccc3c2O[C@H](CN(C)C(=O)Nc2ccc(C(F)(F)F)cc2)[C@H](C)CN([C@@H](C)CO)C3=O)cc1`, the cytotoxicity call was “inactive”.

For the molecule `O=C(C[C@@H]1CC[C@H]2[C@@H](COC[C@@H](O)CN2C(=O)Nc2cccc(F)c2)O1)NCCCN1CCOCC1`, the cytotoxicity call was “inactive”.

Consider `C[C@H]1CN([C@@H](C)CO)C(=O)c2cc(NC(=O)C3CCCCC3)ccc2O[C@@H]1CN(C)Cc1ccc(-c2ccccc2)cc1`, for which the cytotoxicity call was “inactive”.

Turning to `C[C@@H]1CCCCO[C@H](CN(C)Cc2ccc3c(c2)OCO3)[C@@H](C)CN([C@@H](C)CO)C(=O)c2cc(NC(=O)CCC(F)(F)F)ccc2O1`, the cytotoxicity call was “inactive”.

Turning to `C[C@H](CO)N1C[C@H](C)[C@@H](CN(C)C(=O)N[C@H](C)c2ccccc2)OCc2ccccc2-c2ccccc2C1=O`, the cytotoxicity call was “inactive”.

Consider `Cc1ccc(S(=O)(=O)Nc2ccc3c(c2)C(=O)N([C@H](C)CO)C[C@H](C)[C@@H](CN(C)C(=O)NC2CCCCC2)OCCCC[C@H](C)O3)cc1`, for which the cytotoxicity call was “inactive”.

Consider `O=C(C[C@H]1C=C[C@H](NC(=O)c2cccnc2)[C@@H](CO)O1)NCc1ccncn1`, for which the cytotoxicity call was “inactive”.

With `N#C[C@H]1NCc2cnnn2Cc2ccccc21`, the cytotoxicity call is “inactive”.

On to `Cc1ccc(S(=O)(=O)N(C)C[C@H]2OCCCC[C@H](C)Oc3ccc(NC(=O)Cc4ccccc4)cc3C(=O)N([C@H](C)CO)C[C@H]2C)cc1`, for which the cytotoxicity call is “inactive”.

On to `C[C@@H]1CN([C@H](C)CO)C(=O)c2cc(C#Cc3ccccn3)cnc2O[C@H]1CN(C)C(=O)c1cnccn1`, for which the cytotoxicity call was “inactive”.

With `CCCN(C)C[C@H]1OCCCC[C@@H](C)Oc2ccc(NC(=O)Nc3ccc4c(c3)OCO4)cc2C(=O)N([C@H](C)CO)C[C@@H]1C`, the cytotoxicity call is “inactive”.

`CCCC(=O)Nc1ccc2c(c1)C(=O)N(C)[C@@H]1CC[C@H](CC(=O)NCCN3CCCCC3)O[C@H]1CO2`: the cytotoxicity call was “inactive”.

In the case of `CC(C)NC(=O)N[C@H]1C=C[C@@H](CC(=O)O)O[C@@H]1CO`, the cytotoxicity call is “inactive”.

Take `C[C@@H]1CN([C@H](C)CO)C(=O)c2cccc(NC(=O)c3ccc(-c4nccs4)cc3)c2O[C@@H]1CN(C)Cc1ccccc1`: the cytotoxicity call is “inactive”.

`CC(C)(C)S(=O)N1Cc2cc(C(=O)NCc3ccc4c(c3)OCO4)nc(-c3cccc(-c4cccc(F)c4)c3)c2[C@@H]1CCO` (some centres undefined): the cytotoxicity call was “inactive”.

For `C[C@@H]1CCCCO[C@@H](CN(C)C(=O)c2ccncc2)[C@H](C)CN([C@@H](C)CO)C(=O)c2cc(NC(=O)NC3CCCCC3)ccc2O1`, the cytotoxicity call was “inactive”.

Turning to `C[C@H](CO)N1C[C@H](C)[C@@H](CN(C)C(=O)Nc2cccc3ccccc23)Oc2ccc(NC(=O)CCC(F)(F)F)cc2C1=O`, the cytotoxicity call is “inactive”.

In the case of `C[C@H](CO)N1C[C@H](C)[C@@H](CN(C)S(=O)(=O)c2ccc(F)cc2)OCCCC[C@H](C)Oc2ccc(NS(C)(=O)=O)cc2C1=O`, the cytotoxicity call was “inactive”.

For a further assay, the system named is HepG2. As to the kind of experiment: cytotoxicity call (relative viability < 0.9). The settings on record: 10 µM.
Turning to `C[C@@H]1CCCCO[C@@H](CN(C)C(=O)Nc2cccc3ccccc23)[C@H](C)CN([C@@H](C)CO)C(=O)c2cc(NC(=O)c3ccccc3)ccc2O1`, the cytotoxicity call was “active”.

As to `C[C@@H]1CCCCO[C@H](CN(C)C(=O)C2CCCCC2)[C@@H](C)CN([C@@H](C)CO)C(=O)c2cc(NS(=O)(=O)c3ccc(F)cc3)ccc2O1`, the cytotoxicity call is “inactive”.

Take `COCC#Cc1cnc2c(c1)C(=O)N([C@H](C)CO)C[C@H](C)[C@@H](CN(C)C(=O)c1ccc3c(c1)OCO3)O2`: the cytotoxicity call was “inactive”.

As for `CC(C)C#Cc1ccc2c(c1)O[C@@H](CN(C)C(=O)c1cccc(F)c1)[C@@H](C)CN([C@@H](C)CO)S2(=O)=O`, the cytotoxicity call is “inactive”.

Consider `CN(C)CCCNC(=O)C[C@@H]1CC[C@@H]2[C@@H](COc3ccc(NC(=O)c4ccccc4F)cc3C(=O)N2C)O1`, for which the cytotoxicity call was “inactive”.

Turning to `Cc1cn(Cc2ccccc2)c(=O)[nH]c1=O`, the cytotoxicity call is “inactive”.

In the case of `COc1ccc2c3c([nH]c2c1)[C@@H](CO)N(C[C@]13CCN(CC1)S(=O)(=O)C)C(=O)Nc1ccc(cc1)F`, the cytotoxicity call was “inactive”.

As for `CO[C@H]1O[C@H]2CO[C@H]([C@@H]1O)[C@@H]2O`, the cytotoxicity call is “inactive”.

For the molecule `C[C@@H]1CN([C@@H](C)CO)C(=O)c2cc(NC(=O)Nc3cccc4ccccc34)ccc2O[C@H]1CN(C)Cc1ccc(C(F)(F)F)cc1`, the cytotoxicity call was “active”.

For `COC1=C(OC)C(=O)C(CCCCCCCCCCO)=C(C)C1=O`, the cytotoxicity call is “active”.

As to `COc1ccc2nccc(Cl)c2c1`, the cytotoxicity call is “inactive”.

For `C[C@H]1CN([C@@H](C)CO)C(=O)Cc2cc(NS(=O)(=O)c3ccc(F)cc3)ccc2O[C@@H]1CN(C)Cc1ccncc1`, the cytotoxicity call was “inactive”.

Turning to `C/C=C1\NC(=O)[C@H]2CSSCC/C=C/[C@H](CC(=O)N[C@H](C(C)C)C(=O)N2)OC(=O)[C@H](C(C)C)NC1=O`, the cytotoxicity call is “active”.

As for `COc1ccc(S(=O)(=O)N(C)C[C@@H]2Oc3c(NS(=O)(=O)c4c(C)noc4C)cccc3C(=O)N([C@@H](C)CO)C[C@@H]2C)cc1`, the cytotoxicity call was “inactive”.

On to `C[C@@H]1CCCCO[C@H](CN(C)CC2CC2)[C@H](C)CN([C@@H](C)CO)C(=O)c2cc(NC(=O)C3CCCCC3)ccc2O1`, for which the cytotoxicity call is “inactive”.

Consider `c1ccc(Oc2cccc(Oc3ccccc3)c2)cc1`, for which the cytotoxicity call is “inactive”.

Regarding `Cc1noc(C)c1NC(=O)N(C)C[C@@H]1Oc2ccc(NC(=O)NC(C)C)cc2CC(=O)N([C@@H](C)CO)C[C@@H]1C`, the cytotoxicity call was “inactive”.

As to `C[C@@H]1CN([C@H](C)CO)C(=O)Cc2cc(NC(=O)CCCCCC(=O)Nc3ccccc3N)ccc2O[C@@H]1CN(C)CC1CCCCC1`, the cytotoxicity call was “inactive”.

As to `CC[C@H]1OC(=O)C[C@@H](O)[C@H](C)[C@@H](O[C@@H]2O[C@H](C)[C@@H](O)[C@H](N(C)C)[C@H]2O)[C@@H](CCN2C[C@H](C)C[C@H](C)C2)C[C@@H](C)C(=O)/C=C/C(C)=C/[C@@H]1CO[C@@H]1O[C@H](C)[C@@H](O)[C@@H](OC)[C@H]1OC`, the cytotoxicity call was “inactive”.

For the molecule `C[C@@H]1CN([C@@H](C)CO)C(=O)c2cccc(NC(=O)C3CCOCC3)c2O[C@@H]1CN(C)S(=O)(=O)c1cccs1`, the cytotoxicity call was “inactive”.

On to `CC(=O)N1CCO[C@H]2CN(S(=O)(=O)c3cccnc3)C[C@@H]2C1`, for which the cytotoxicity call was “inactive”.

As to `CO[C@@H]1CN(C)C(=O)c2ccc(NC(C)=O)cc2OC[C@@H](C)N(S(=O)(=O)c2cn(C)cn2)C[C@H]1C`, the cytotoxicity call was “inactive”.

Regarding `COc1ccc(NC(=O)Nc2cccc3c2O[C@H](CN(C)C(=O)Nc2ccc(C(F)(F)F)cc2)[C@H](C)CN([C@@H](C)CO)C3=O)cc1`, the cytotoxicity call is “inactive”.

Consider `O=C(C[C@@H]1CC[C@H]2[C@@H](COC[C@@H](O)CN2C(=O)Nc2cccc(F)c2)O1)NCCCN1CCOCC1`, for which the cytotoxicity call was “inactive”.

Turning to `C[C@H]1CN([C@@H](C)CO)C(=O)c2cc(NC(=O)C3CCCCC3)ccc2O[C@@H]1CN(C)Cc1ccc(-c2ccccc2)cc1`, the cytotoxicity call is “inactive”.

For `C[C@@H]1CCCCO[C@H](CN(C)Cc2ccc3c(c2)OCO3)[C@@H](C)CN([C@@H](C)CO)C(=O)c2cc(NC(=O)CCC(F)(F)F)ccc2O1`, the cytotoxicity call is “inactive”.

Take `C[C@H](CO)N1C[C@H](C)[C@@H](CN(C)C(=O)N[C@H](C)c2ccccc2)OCc2ccccc2-c2ccccc2C1=O`: the cytotoxicity call is “inactive”.

Consider `Cc1ccc(S(=O)(=O)Nc2ccc3c(c2)C(=O)N([C@H](C)CO)C[C@H](C)[C@@H](CN(C)C(=O)NC2CCCCC2)OCCCC[C@H](C)O3)cc1`, for which the cytotoxicity call is “inactive”.

On to `O=C(C[C@H]1C=C[C@H](NC(=O)c2cccnc2)[C@@H](CO)O1)NCc1ccncn1`, for which the cytotoxicity call is “inactive”.

For `N#C[C@H]1NCc2cnnn2Cc2ccccc21`, the cytotoxicity call is “inactive”.

Turning to `Cc1ccc(S(=O)(=O)N(C)C[C@H]2OCCCC[C@H](C)Oc3ccc(NC(=O)Cc4ccccc4)cc3C(=O)N([C@H](C)CO)C[C@H]2C)cc1`, the cytotoxicity call was “inactive”.

Turning to `C[C@@H]1CN([C@H](C)CO)C(=O)c2cc(C#Cc3ccccn3)cnc2O[C@H]1CN(C)C(=O)c1cnccn1`, the cytotoxicity call is “inactive”.

Take `CCCN(C)C[C@H]1OCCCC[C@@H](C)Oc2ccc(NC(=O)Nc3ccc4c(c3)OCO4)cc2C(=O)N([C@H](C)CO)C[C@@H]1C`: the cytotoxicity call was “inactive”.

Turning to `CCCC(=O)Nc1ccc2c(c1)C(=O)N(C)[C@@H]1CC[C@H](CC(=O)NCCN3CCCCC3)O[C@H]1CO2`, the cytotoxicity call was “inactive”.

For `CC(C)NC(=O)N[C@H]1C=C[C@@H](CC(=O)O)O[C@@H]1CO`, the cytotoxicity call was “inactive”.

As for `C[C@@H]1CN([C@H](C)CO)C(=O)c2cccc(NC(=O)c3ccc(-c4nccs4)cc3)c2O[C@@H]1CN(C)Cc1ccccc1`, the cytotoxicity call was “inactive”.
